The other results are listed elsewhere or left out. Sequences were assembled here from the parent chain. Values near 0.05 are background.
B1: TEV protease; numbered along this chain (parent)
chain: MGESLFKGPRDYNPISSSICHLTNESDGHTTSLYGIGFGPFIITNKHLFRRNNGTLVVQSLHGVFKVKDTTTLQQHLVDGRDMIIIRMPKDFPPFPQKLKFREPQREERICLVTTNFQTKSMSSMVSDTSCTFPSGDGIFWKHWIQTKDGQCGSPLVSTRDGFIVGIHSASNFTNTNNYFTSVPKNFMELLTNQEAQQWVSGWRLNADSVLWGGHKVFMVKPEEPFQPVKEATQL

Variants of: B1
Test: raw area under fraction-flipped curve 0-4 h after induction (AUC4h, not background-subtracted), DNA-recorder readout of cleavage of the substrate (dimensionless); higher = more cleavage of the substrate by the protease variant
Details: temperature: 34 °C; time window: 0-4 h after rhamnose induction
Method: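 In vivo DNA recorder in E. coli TOP10(DE3) ΔrhaA at 34 °C. Each TEVp single-site mutant (parent TEVp 0) is paired with a single-site variant of the 7-mer TEVs (canonical ENLYFQ|S). The substrate sits between flexible linkers in a Bxb1-sfGFP-TEVs-SsrA fusion, so cleavage stabilises Bxb1 and speeds flipping of a recombination array, read by NGS. The value is the raw area under the fraction-flipped curve over 0-4 h after rhamnose induction (AUC4h), with ≥20 reads per time point. It is not background-subtracted; inactive controls average about 0.047.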
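Further: Bxb1 expression induced with 0.2% (w/v) L-rhamnose at OD600 near 0.5, cultures sampled hourly, flipped fraction per protease–substrate barcode pair counted by paired-end Illumina sequencing.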

Row | Variant | area with substrate DNLYFQS | area with substrate GNLYFQS | area with substrate HNLYFQS | area with substrate INLYFQS | area with substrate KNLYFQS | area with substrate LNLYFQS | area with substrate MNLYFQS | area with substrate NNLYFQS | area with substrate PNLYFQS | area with substrate QNLYFQS | area with substrate RNLYFQS | area with substrate SNLYFQS | area with substrate TNLYFQS | area with substrate VNLYFQS | area with substrate WNLYFQS | area with substrate YNLYFQS | area with substrate FNLYFQS
1 | M83A | 0.0602 | 0.0571 | 0.0539 | 0.0577 | 0.0666 | 0.0411 | 0.0623 | 0.0546 | 0.0657 | 0.0761 | 0.0662 | 0.0711 | 0.0644 | 0.048 | 0.0596 | 0.0668 | –
2 | K98Y | 0.084 | 0.0663 | 0.0764 | 0.0769 | 0.0746 | 0.0668 | 0.0637 | 0.0789 | 0.0743 | – | 0.0676 | 0.0558 | – | 0.0875 | 0.0713 | 0.0549 | 0.0516
3 | S171P | 0.0662 | – | 0.0582 | 0.0523 | – | 0.0577 | 0.067 | 0.0547 | 0.0643 | – | – | – | 0.0593 | – | 0.0603 | 0.0394 | 0.0613
4 | Y12F | 0.0806 | 0.038 | 0.0691 | 0.079 | 0.0619 | – | – | 0.0546 | 0.0626 | – | – | 0.0667 | 0.0531 | – | 0.0546 | 0.0777 | 0.0405
5 | F173Q | 0.0644 | – | – | – | 0.0635 | – | – | – | 0.076 | – | 0.0582 | – | – | – | 0.0545 | – | –
6 | A196T | 0.12 | – | 0.0694 | 0.0585 | – | 0.0662 | 0.0693 | 0.0638 | 0.04 | – | 0.0641 | 0.0739 | 0.07 | – | 0.0599 | – | 0.0609
7 | T115S | 0.0817 | 0.0633 | 0.0742 | 0.0688 | – | 0.0629 | – | 0.065 | – | 0.0583 | – | 0.0622 | 0.066 | 0.0754 | 0.0574 | 0.0674 | 0.0661
8 | P14V | 0.0871 | 0.0752 | 0.0613 | 0.065 | 0.107 | 0.0624 | 0.0675 | 0.0631 | 0.0624 | – | – | – | 0.0491 | – | 0.0642 | 0.06 | 0.0684
9 | T181S | 0.071 | – | 0.0788 | – | – | – | 0.0692 | – | 0.062 | – | – | 0.0741 | – | 0.06 | 0.0363 | – | 0.0676
10 | G54D | 0.0593 | 0.0637 | 0.0634 | 0.0504 | 0.0449 | 0.0644 | 0.0689 | 0.0665 | 0.0622 | – | 0.0663 | 0.064 | 0.0659 | 0.054 | – | 0.0373 | 0.0601
11 | V78K | 0.0626 | 0.0427 | 0.0588 | 0.0377 | 0.049 | 0.0498 | – | 0.0515 | 0.0578 | 0.0403 | – | 0.0546 | – | – | 0.0508 | 0.0421 | –
12 | M188D | 0.0676 | 0.0528 | 0.0728 | 0.0611 | 0.0585 | – | 0.0616 | 0.0695 | 0.0278 | – | 0.0747 | 0.0571 | 0.0682 | – | 0.0534 | – | 0.0631
13 | E108L | 0.0621 | 0.055 | 0.0628 | – | 0.0619 | – | 0.0393 | 0.0596 | 0.0544 | – | – | – | 0.057 | – | 0.0537 | 0.053 | –
